The results in this text go back to article PMC4242493.

Some of the results follow. The list includes weakly bound sequences.

The target of the test is MaxL homodimer (UniProt P61244). Put plainly: universal protein-binding microarray (PBM). Particulars: PBS-based mixture, 10 nM His-tagged protein dimer, 2% milk, 200 ng/uL BSA, 50 ng/uL salmon testes DNA, 0.02% TX-100; detection with Alexa 488 anti-His …; high values mean tight binding; most listed sequences are background and not binding sites; double strand, one strand shown.
Sequence of UniProt P61244 (P61244 whole entry): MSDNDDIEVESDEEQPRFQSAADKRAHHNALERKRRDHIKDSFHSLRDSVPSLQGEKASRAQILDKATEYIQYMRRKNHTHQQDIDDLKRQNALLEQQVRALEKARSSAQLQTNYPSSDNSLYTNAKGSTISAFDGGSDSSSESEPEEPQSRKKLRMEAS
On to ATCACAGA, for which the binding signal (normalized occupancy) amounted to 0.0733. The same measure for TCGGGCCA: 0.0677; for ACCTCTAA: 0.0727.

Regarding CGACCACG, the binding signal (normalized occupancy) was determined as 0.0907.

For the sequence CAGAGCAC, the binding signal (normalized occupancy) is 0.0798.

Turning to TACGCAAA, the binding signal (normalized occupancy) worked out at 0.072. As to GCCCCATA, the binding signal (normalized occupancy) came to 0.084. Turning to CGTCCCAA, the binding signal (normalized occupancy) amounted to 0.0723. The same measure for ATGCTCCC: 0.0866; for CTCTGACA: 0.0732; for GGTCTACA: 0.0766. The same measure for GAGGGCAA: 0.0765.

For the sequence CGCTCCCC, the binding signal (normalized occupancy) was 0.0697. Under TATATTCA stands 0.0819; under AGTTTTAC, 0.0697. Under AAGCTTTC stands 0.0677; under AACGGAGT, 0.0667. The same measure for CAACGATA: 0.0751; for AGCTTAGA: 0.0747. Consider AGGGGAGA, for which the binding signal (normalized occupancy) came to 0.0776. The same measure for AGATCTTC: 0.075; for CATGCGTC: 0.113.

With AGTCTCGC, the binding signal (normalized occupancy) turned out to be 0.0733. Under GGAATCCA stands 0.0798; under AGTTGCAC, 0.0721; under CGTGATTC, 0.091. For CGTAGGCA, the binding signal (normalized occupancy) was 0.0743. As to CGCCTATC, the binding signal (normalized occupancy) is 0.0788. The same measure for AGTTAACA: 0.0755; for AGGATGAT: 0.0844. The same measure for AGTTGATC: 0.0777; for CAGGTGCC: 0.0785. Take CCGCGGCG: the binding signal (normalized occupancy) was found to be 0.0673. For the sequence GGATATCA, the binding signal (normalized occupancy) came to 0.082. GCAAGGCC: the binding signal (normalized occupancy) came out at 0.0692.

As to GGAGGCGA, the binding signal (normalized occupancy) was 0.074. For the sequence GGGAGACC, the binding signal (normalized occupancy) is 0.0741.

In the case of ATTTTTGC, the binding signal (normalized occupancy) came out at 0.0769. The same measure for GACTACAA: 0.0767. Take CAGACCTA: the binding signal (normalized occupancy) was found to be 0.0725. Regarding CACATTTA, the binding signal (normalized occupancy) came out at 0.0961. The same measure for CTAACCAC: 0.0817; for GAACGGAA: 0.0709; for CCTTCTAA: 0.078.

Regarding CCGGTGGA, the binding signal (normalized occupancy) worked out at 0.0712. Turning to GTCAAGGA, the binding signal (normalized occupancy) was found to be 0.0749. In the case of ATCAAGCA, the binding signal (normalized occupancy) is 0.0748. The same measure for AACTGAGA: 0.069; for CCCTTGTC: 0.0759.

Regarding CAATGCTG, the binding signal (normalized occupancy) came out at 0.08.

Regarding AACGTACA, the binding signal (normalized occupancy) was determined as 0.0843. Consider GCCTCCCC, for which the binding signal (normalized occupancy) is 0.0802.

In the case of ACCGCCTC, the binding signal (normalized occupancy) came to 0.0707. Regarding GAGCAGGC, the binding signal (normalized occupancy) was 0.079.

Consider GACTCACA, for which the binding signal (normalized occupancy) came out at 0.0809. Under ATACTGAC stands 0.0725; under AATTCCGC, 0.0721; under TAGGCACA, 0.0825. The same measure for AGGTTTAT: 0.0803; for GGCGCCCC: 0.0694; for ATTTTGGG: 0.0707.

Take GCTGGGCA: the binding signal (normalized occupancy) was determined as 0.0677. Under GCGGCCCC stands 0.0734.

In the case of ACATTATC, the binding signal (normalized occupancy) was determined as 0.0876. Under GTGGAAGA stands 0.0769. The same measure for ACTACGCT: 0.0769; for GACCCGGA: 0.0761; for ACGCAGAT: 0.0806. Under CTCTTACC stands 0.0753.

Turning to ATATATGC, the binding signal (normalized occupancy) worked out at 0.0867. With AGTTCCTG, the binding signal (normalized occupancy) stood at 0.0697. Under ATACTAAA stands 0.0775; under CGGTAGGA, 0.0713; under TAATAACA, 0.0829. In the case of CTTGCAAC, the binding signal (normalized occupancy) stood at 0.0721.

Regarding GAATACAC, the binding signal (normalized occupancy) was 0.0792. CCAGAGTC: the binding signal (normalized occupancy) was 0.0651.

Consider GGGCCTAA, for which the binding signal (normalized occupancy) stood at 0.0681. In the case of CATAAGAG, the binding signal (normalized occupancy) was found to be 0.0772. Under AGAGTCCC stands 0.0735; under ATTACTTG, 0.0748. Under AGTGAATG stands 0.0793; under AAGGCTCT, 0.0712.

Regarding ATCTCATC, the binding signal (normalized occupancy) came out at 0.0887.

Turning to GTCCAGAC, the binding signal (normalized occupancy) amounted to 0.0728. CCTAACTA: the binding signal (normalized occupancy) turned out to be 0.0746.

Turning to GTTCAAGA, the binding signal (normalized occupancy) turned out to be 0.0691. With ATACGGCA, the binding signal (normalized occupancy) is 0.0791.

As to CTCCGGCC, the binding signal (normalized occupancy) came out at 0.07.

Regarding AATGAAAG, the binding signal (normalized occupancy) came out at 0.0748.

On to CATTATAG, for which the binding signal (normalized occupancy) was 0.0795. For CGCGGAGC, the binding signal (normalized occupancy) stood at 0.066.

In the case of AGGCATGC, the binding signal (normalized occupancy) was 0.1. Consider CCAATCCG, for which the binding signal (normalized occupancy) was determined as 0.0684.

CATTCTCG: the binding signal (normalized occupancy) came out at 0.0775. Under GTCTCTAA stands 0.0742; under CAGTAATG, 0.0747; under TCCCCACA, 0.0842. Under ATTAACGA stands 0.0815; under ATGTATCA, 0.0901; under ATCCCGAT, 0.0787. The same measure for CTCGCTCC: 0.0678. Take TGGCATAA: the binding signal (normalized occupancy) worked out at 0.0826. Consider ACCGGGCG, for which the binding signal (normalized occupancy) was found to be 0.0674.

As to CTCTCTGA, the binding signal (normalized occupancy) stood at 0.0677. Under AATTCCGG stands 0.0686; under ACTTTATG, 0.0826; under TCCACGGA, 0.0739. In the case of CAACCTGA, the binding signal (normalized occupancy) was found to be 0.0793.

For the sequence ACCTTCAG, the binding signal (normalized occupancy) was 0.0702. As to GTACACTA, the binding signal (normalized occupancy) was found to be 0.0755. For the sequence GCGATCAC, the binding signal (normalized occupancy) amounted to 0.082. Under CCCCTAAG stands 0.0697. Take CCCAGAAG: the binding signal (normalized occupancy) came out at 0.0682. Under GGTGAAAC stands 0.0719; under AGTAAAAT, 0.0728. Under ATGACTAA stands 0.0795; under TCGATCCA, 0.0741. Take ACCCCAGA: the binding signal (normalized occupancy) amounted to 0.0752. Regarding GAATGCCC, the binding signal (normalized occupancy) came to 0.0765. Regarding CTGAAGTC, the binding signal (normalized occupancy) came to 0.071. For the sequence ACAGAAGA, the binding signal (normalized occupancy) came out at 0.0734. With CACATTAC, the binding signal (normalized occupancy) is 0.0933.

Turning to CATTTAAG, the binding signal (normalized occupancy) was 0.0762. Take GATCCCCC: the binding signal (normalized occupancy) is 0.0883. On to GCATCCGA, for which the binding signal (normalized occupancy) was found to be 0.0761. On to GTGTTACA, for which the binding signal (normalized occupancy) is 0.089.

Turning to GCTACATA, the binding signal (normalized occupancy) came out at 0.0798. Under CCAATAAA stands 0.0849; under AACGTCTA, 0.0689; under CACTGAGA, 0.0713. Under ACGCCCGA stands 0.0838. For the sequence CTCCTGAA, the binding signal (normalized occupancy) came to 0.0694. On to GGAGAGCA, for which the binding signal (normalized occupancy) worked out at 0.0742.

In the case of AATTTAAA, the binding signal (normalized occupancy) was 0.0691. Under ACCTAGTC stands 0.0711.

As to ACGTCCAT, the binding signal (normalized occupancy) was determined as 0.081. In the case of ACTTGCCA, the binding signal (normalized occupancy) was 0.0715. Take GGATGCAC: the binding signal (normalized occupancy) came out at 0.0851. Turning to ATGGCGCG, the binding signal (normalized occupancy) was 0.0814.

On to GATTGTAA, for which the binding signal (normalized occupancy) amounted to 0.0753. ACATATCC: the binding signal (normalized occupancy) turned out to be 0.0835.

For ATCCTTAC, the binding signal (normalized occupancy) came to 0.0772. ACCACACA: the binding signal (normalized occupancy) amounted to 0.085. GCCCGGCC: the binding signal (normalized occupancy) amounted to 0.0649. Regarding CATGGTCG, the binding signal (normalized occupancy) was found to be 0.0925. Under GGACCCCA stands 0.0794; under GATTATAC, 0.0735.

Consider GCCACAAA, for which the binding signal (normalized occupancy) came to 0.0733. As for ATTCTGAA, the binding signal (normalized occupancy) was found to be 0.0729. Turning to GATCAACC, the binding signal (normalized occupancy) turned out to be 0.0735. As for AACGACAG, the binding signal (normalized occupancy) was determined as 0.075. The same measure for GGTTCTAC: 0.0735.

In the case of CTCAAGGC, the binding signal (normalized occupancy) was 0.0765.

For the sequence GAGTCCTA, the binding signal (normalized occupancy) was 0.0711. The same measure for ACTTCTCG: 0.0732; for GTACGGTA: 0.0741. As to TAATTACA, the binding signal (normalized occupancy) was found to be 0.0778. With AGGGCGAC, the binding signal (normalized occupancy) was 0.0699. In the case of CGCGCTTC, the binding signal (normalized occupancy) was found to be 0.0753. The same measure for ATAGTGAG: 0.0765; for ATACACGG: 0.0846; for ACTCTCCA: 0.0749. Under GGGACAAA stands 0.0757. As for CTCTCACA, the binding signal (normalized occupancy) stood at 0.0808.

AGACGGAT: the binding signal (normalized occupancy) was 0.0765. For the sequence CGGTGATC, the binding signal (normalized occupancy) turned out to be 0.0719. For the sequence GCTCCAGA, the binding signal (normalized occupancy) turned out to be 0.0689. The same measure for GTGTTCTA: 0.0812; for CGGGACTA: 0.0695; for ACCCACAC: 0.0847. Consider AACTAATG, for which the binding signal (normalized occupancy) was determined as 0.0755.

Regarding AGGGGACA, the binding signal (normalized occupancy) came out at 0.0728. The same measure for CTTCCGCC: 0.0655; for GCGATGTA: 0.0777.

As to ACGACTGC, the binding signal (normalized occupancy) was determined as 0.0679. Under TAGAAGAA stands 0.0722; under AGGCTTGG, 0.0699; under CGGTAGTA, 0.0771.

Take ACTCGCCC: the binding signal (normalized occupancy) is 0.0699. In the case of CATCCCAG, the binding signal (normalized occupancy) was found to be 0.0743. With CAAAAGTG, the binding signal (normalized occupancy) was 0.0729. Under AATAAAGT stands 0.0743; under TAACTATA, 0.0828; under CTCCGGCA, 0.073. The same measure for ATCCGTCA: 0.0707; for ACCGTTGC: 0.0705. Under CACACACG stands 0.0916; under CCTTCACC, 0.0727; under GCAGCTCA, 0.0711.

Consider ACATATCA, for which the binding signal (normalized occupancy) stood at 0.0892.

As for CAAAGTCG, the binding signal (normalized occupancy) worked out at 0.0646. Under CCTGCTCG stands 0.0686. Under GACACCAC stands 0.0761.

As for CGTAAATA, the binding signal (normalized occupancy) was found to be 0.0761. On to ACTTTGAT, for which the binding signal (normalized occupancy) amounted to 0.0759. Take ATAAAGTG: the binding signal (normalized occupancy) turned out to be 0.082. Under AGTACAGA stands 0.0762; under TAGATTAA, 0.0757. In the case of AGAGGGGA, the binding signal (normalized occupancy) was determined as 0.0758. As to AGAGAGTC, the binding signal (normalized occupancy) came to 0.0761. Under CTAGCTAG stands 0.0669; under ACTTGATG, 0.0771; under AGCGGGGG, 0.0731. On to AGAAGATG, for which the binding signal (normalized occupancy) came to 0.0765. In the case of TGGAACCA, the binding signal (normalized occupancy) was 0.0731.

For the sequence ACAAGAAA, the binding signal (normalized occupancy) came out at 0.073. As to GGTCTGAC, the binding signal (normalized occupancy) is 0.0718. The same measure for GAAACATC: 0.0805; for AGGTCCGA: 0.0717; for AAGGACGA: 0.0678.

ACAGTGAT: the binding signal (normalized occupancy) worked out at 0.075. The same measure for AATGATGC: 0.0792; for AGCACCCC: 0.0764; for GACACCTA: 0.0747. With AGACTACC, the binding signal (normalized occupancy) was 0.0685. Regarding GGCAGCGA, the binding signal (normalized occupancy) amounted to 0.0701. As for AATAGGAC, the binding signal (normalized occupancy) was determined as 0.0851. Under CAGCACTC stands 0.072.
